Positions count from the first letter of the chain named. No constants are given. Whether binding was seen depends on the method and setting. Some results given as binding are weak or reduced against the parent protein; the word gives no strength. For some assays here: Where a sequence is shown, tags or fusion partners need not be part of it.
Assays:
[1] = target: T1, 6×His-SlmA (E. coli) (UniProt P0C093); assay: BLI; biotinylated SBS17-30mer (50 nM) on streptavidin tips, loaded with 4 µM SlmA or SlmA mutant; FtsZ or variants (4 µM, preincubated with 1 mM GDP) or peptides (up to 320 µM) in solution; 1× Pol buffer, room temperature; both purified
T1 sequence: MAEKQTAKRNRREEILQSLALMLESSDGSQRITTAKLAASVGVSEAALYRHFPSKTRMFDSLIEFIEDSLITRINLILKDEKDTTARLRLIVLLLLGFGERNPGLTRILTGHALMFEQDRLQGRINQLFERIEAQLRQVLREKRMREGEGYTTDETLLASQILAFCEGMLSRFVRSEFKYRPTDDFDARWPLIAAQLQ

By UniProt entry, the sequences of proteins in these tests, tags left out. Where a name states a change or a piece, a line headed by the entry shows the natural chain unless it says otherwise.
UniProt P0A9A6: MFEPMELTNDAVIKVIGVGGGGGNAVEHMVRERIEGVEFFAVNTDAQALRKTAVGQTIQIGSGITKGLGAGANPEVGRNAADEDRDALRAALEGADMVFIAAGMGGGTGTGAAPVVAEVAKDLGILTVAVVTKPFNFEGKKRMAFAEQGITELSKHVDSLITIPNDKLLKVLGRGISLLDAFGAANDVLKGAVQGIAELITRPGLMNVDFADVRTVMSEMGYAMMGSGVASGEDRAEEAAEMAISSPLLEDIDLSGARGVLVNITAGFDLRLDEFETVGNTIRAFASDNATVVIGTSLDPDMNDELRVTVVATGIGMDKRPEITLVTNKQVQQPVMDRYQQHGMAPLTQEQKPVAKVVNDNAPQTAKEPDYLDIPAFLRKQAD

[2] = target: T1, 6×His-SlmA (E. coli); assay: BLI; competition: SlmA/SBS17-30mer on streptavidin tips; 4 µM FtsZ preincubated with various concentrations of ZipA185-328 (with GDP); both purified
[3] = target: T1, 6×His-SlmA (E. coli); assay: BLI; data not shown: 6×-His-SlmA preincubated with SBS17-30mer attached to a Ni-NTA biosensor, FtsZ in solution; both purified
[4] = target: T2, 6×His-SlmA-R73D (E. coli) (UniProt P0C093); assay: BLI; biotinylated SBS17-30mer (50 nM) on streptavidin tips, loaded with 4 µM SlmA or SlmA mutant; FtsZ or variants (4 µM, preincubated with 1 mM GDP) or peptides (up to 320 µM) in solution; 1× Pol buffer, room temperature; both purified
T2 sequence: T1 sequence with R73D

[5] = target: T3, 6×His-SlmA-F65A (E. coli) (UniProt P0C093); assay: as above
T3 sequence: T1 sequence with F65A

[6] = target: T1, 6×His-SlmA (E. coli); assay: BLI; competition: SlmA/SBS17-30mer on streptavidin tips; 4 µM FtsZ preincubated with various concentrations of the FtsZ C-terminal peptide; both purified
[7] = target: T4, SlmA-T25 (E. coli) (UniProt P0C093); assay: two-hybrid; bacterial two-hybrid (T18/T25) in BTH101; spots on LB plates with X-gal and 250 µM IPTG, 30°C, 36 hours
T4 sequence: T1 sequence

Row | Substance | binding [1] | binding [7] | further results
1 | 6×His-FtsZ320 (from UniProt P0A9A6 1-320) (domain or fragment) | no binding (tested: 4 µM) |  | 
2 | FtsZ (from UniProt P0A9A6 1-383) | binds |  | binding [2]: binds; binding [3]: binds; binding [4]: no binding (tested: 4 µM); binding [5]: no binding (tested: 4 µM); binding [6]: binds
3 | FtsZ-D86N-T18 (from UniProt P0A9A6 1-383) |  | binds weakly | 
4 | FtsZ-I374K (from UniProt P0A9A6 1-383) | no binding (tested: 4 µM) |  | 
5 | FtsZ-K190V-T18 (from UniProt P0A9A6 1-383) |  | binds weakly | 
6 | FtsZ-L378E (from UniProt P0A9A6 1-383) | no binding (tested: 4 µM) |  | 
7 | FtsZ-T18 (from UniProt P0A9A6 1-383) |  | binds weakly | 
8 | Ztail-I374K (from UniProt P0A9A6 370-383) (peptide) | no binding (tested: 320 µM) |  | 
9 | Ztail-L378E (from UniProt P0A9A6 370-383) (peptide) | no binding (tested: 320 µM) |  | 

Source: article PMC4117426
